# Reference: the supplement of paper PMC12217912
# The list shows a part of the results. Sequences were assembled here from the parent chain. Inactive controls read about 0.05.
# B1: TEV protease; numbered along this chain (parent)
# chain: MGESLFKGPRDYNPISSSICHLTNESDGHTTSLYGIGFGPFIITNKHLFRRNNGTLVVQSLHGVFKVKDTTTLQQHLVDGRDMIIIRMPKDFPPFPQKLKFREPQREERICLVTTNFQTKSMSSMVSDTSCTFPSGDGIFWKHWIQTKDGQCGSPLVSTRDGFIVGIHSASNFTNTNNYFTSVPKNFMELLTNQEAQQWVSGWRLNADSVLWGGHKVFMVKPEEPFQPVKEATQL
# Variants of: B1
# Test: raw area under fraction-flipped curve 0-4 h after induction (AUC4h, not background-subtracted), DNA-recorder readout of cleavage of the substrate (dimensionless); higher = more cleavage of the substrate by the protease variant
# Conditions: temperature: 34 °C; time window: 0-4 h after rhamnose induction
# Experimental: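 In vivo DNA recorder in E. coli TOP10(DE3) ΔrhaA at 34 °C. Each TEVp single-site mutant (parent TEVp 0) is paired with a single-site variant of the 7-mer TEVs (canonical ENLYFQ|S). The substrate sits between flexible linkers in a Bxb1-sfGFP-TEVs-SsrA fusion, so cleavage stabilises Bxb1 and speeds flipping of a recombination array, read by NGS. The value is the raw area under the fraction-flipped curve over 0-4 h after rhamnose induction (AUC4h), with ≥20 reads per time point. It is not background-subtracted; inactive controls average about 0.047.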
# 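Further: Bxb1 expression induced with 0.2% (w/v) L-rhamnose at OD600 near 0.5, cultures sampled hourly, flipped fraction per protease–substrate barcode pair counted by paired-end Illumina sequencing.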
variant,measurement,value
MGESLFKGPRDYNPISSSICHLTNESDGHTTSLTGIGFGPFIITNKHLFRRNNGTLVVQSLHGVFKVKDTTTLQQHLVDGRDMIIIRMPKDFPPFPQKLKFREPQREERICLVTTNFQTKSMSSMVSDTSCTFPSGDGIFWKHWIQTKDGQCGSPLVSTRDGFIVGIHSASNFTNTNNYFTSVPKNFMELLTNQEAQQWVSGWRLNADSVLWGGHKVFMVKPEEPFQPVKEATQL [Y34T],area with substrate DNLYFQS,0.0528
same,area with substrate GNLYFQS,0.0532
same,area with substrate HNLYFQS,0.0652
same,area with substrate INLYFQS,0.0573
same,area with substrate KNLYFQS,0.065
same,area with substrate MNLYFQS,0.069
same,area with substrate NNLYFQS,0.0855
same,area with substrate PNLYFQS,0.069
same,area with substrate QNLYFQS,0.043
same,area with substrate VNLYFQS,0.0568
same,area with substrate WNLYFQS,0.0563
same,area with substrate YNLYFQS,0.0471
MGESLFKGPRDYNPISSSICHLTNESDGHTTSLYFIGFGPFIITNKHLFRRNNGTLVVQSLHGVFKVKDTTTLQQHLVDGRDMIIIRMPKDFPPFPQKLKFREPQREERICLVTTNFQTKSMSSMVSDTSCTFPSGDGIFWKHWIQTKDGQCGSPLVSTRDGFIVGIHSASNFTNTNNYFTSVPKNFMELLTNQEAQQWVSGWRLNADSVLWGGHKVFMVKPEEPFQPVKEATQL [G35F],area with substrate DNLYFQS,0.0411
same,area with substrate KNLYFQS,0.0394
same,area with substrate PNLYFQS,0.0321
same,area with substrate TNLYFQS,0.035
same,area with substrate YNLYFQS,0.0401
MGESLFKGPRDYNPISSSICHLTNESDGHTTSLYHIGFGPFIITNKHLFRRNNGTLVVQSLHGVFKVKDTTTLQQHLVDGRDMIIIRMPKDFPPFPQKLKFREPQREERICLVTTNFQTKSMSSMVSDTSCTFPSGDGIFWKHWIQTKDGQCGSPLVSTRDGFIVGIHSASNFTNTNNYFTSVPKNFMELLTNQEAQQWVSGWRLNADSVLWGGHKVFMVKPEEPFQPVKEATQL [G35H],area with substrate DNLYFQS,0.0544
same,area with substrate INLYFQS,0.0519
same,area with substrate PNLYFQS,0.0464
same,area with substrate QNLYFQS,0.058
same,area with substrate VNLYFQS,0.0215
same,area with substrate YNLYFQS,0.0185
MGESLFKGPRDYNPISSSICHLTNESDGHTTSLYYIGFGPFIITNKHLFRRNNGTLVVQSLHGVFKVKDTTTLQQHLVDGRDMIIIRMPKDFPPFPQKLKFREPQREERICLVTTNFQTKSMSSMVSDTSCTFPSGDGIFWKHWIQTKDGQCGSPLVSTRDGFIVGIHSASNFTNTNNYFTSVPKNFMELLTNQEAQQWVSGWRLNADSVLWGGHKVFMVKPEEPFQPVKEATQL [G35Y],area with substrate DNLYFQS,0.0146
same,area with substrate FNLYFQS,0.0241
same,area with substrate HNLYFQS,0.049
same,area with substrate KNLYFQS,0.047
same,area with substrate PNLYFQS,0.0397
same,area with substrate WNLYFQS,0.0429
MGESLFKGPRDYNPISSSICHLTNESDGHTTSLYGGGFGPFIITNKHLFRRNNGTLVVQSLHGVFKVKDTTTLQQHLVDGRDMIIIRMPKDFPPFPQKLKFREPQREERICLVTTNFQTKSMSSMVSDTSCTFPSGDGIFWKHWIQTKDGQCGSPLVSTRDGFIVGIHSASNFTNTNNYFTSVPKNFMELLTNQEAQQWVSGWRLNADSVLWGGHKVFMVKPEEPFQPVKEATQL [I36G],area with substrate DNLYFQS,0.0217
same,area with substrate GNLYFQS,0.0317
same,area with substrate TNLYFQS,0.0336
MGESLFKGPRDYNPISSSICHLTNESDGHTTSLYGIDFGPFIITNKHLFRRNNGTLVVQSLHGVFKVKDTTTLQQHLVDGRDMIIIRMPKDFPPFPQKLKFREPQREERICLVTTNFQTKSMSSMVSDTSCTFPSGDGIFWKHWIQTKDGQCGSPLVSTRDGFIVGIHSASNFTNTNNYFTSVPKNFMELLTNQEAQQWVSGWRLNADSVLWGGHKVFMVKPEEPFQPVKEATQL [G37D],area with substrate DNLYFQS,0.0221
same,area with substrate HNLYFQS,0.0506
same,area with substrate KNLYFQS,0.0483
same,area with substrate MNLYFQS,0.0428
same,area with substrate PNLYFQS,0.0305
same,area with substrate VNLYFQS,0.0507
same,area with substrate WNLYFQS,0.0401
same,area with substrate YNLYFQS,0.0469
MGESLFKGPRDYNPISSSICHLTNESDGHTTSLYGIGSGPFIITNKHLFRRNNGTLVVQSLHGVFKVKDTTTLQQHLVDGRDMIIIRMPKDFPPFPQKLKFREPQREERICLVTTNFQTKSMSSMVSDTSCTFPSGDGIFWKHWIQTKDGQCGSPLVSTRDGFIVGIHSASNFTNTNNYFTSVPKNFMELLTNQEAQQWVSGWRLNADSVLWGGHKVFMVKPEEPFQPVKEATQL [F38S],area with substrate DNLYFQS,0.0551
same,area with substrate GNLYFQS,0.0579
same,area with substrate HNLYFQS,0.0528
same,area with substrate LNLYFQS,0.0514
same,area with substrate MNLYFQS,0.0594
same,area with substrate PNLYFQS,0.0608
same,area with substrate SNLYFQS,0.0555
same,area with substrate TNLYFQS,0.041
same,area with substrate WNLYFQS,0.0524
same,area with substrate YNLYFQS,0.066
MGESLFKGPRDYNPISSSICHLTNESDGHTTSLYGIGFGPMIITNKHLFRRNNGTLVVQSLHGVFKVKDTTTLQQHLVDGRDMIIIRMPKDFPPFPQKLKFREPQREERICLVTTNFQTKSMSSMVSDTSCTFPSGDGIFWKHWIQTKDGQCGSPLVSTRDGFIVGIHSASNFTNTNNYFTSVPKNFMELLTNQEAQQWVSGWRLNADSVLWGGHKVFMVKPEEPFQPVKEATQL [F41M],area with substrate DNLYFQS,0.0787
same,area with substrate GNLYFQS,0.0616
same,area with substrate HNLYFQS,0.0596
same,area with substrate KNLYFQS,0.0539
same,area with substrate LNLYFQS,0.0569
same,area with substrate MNLYFQS,0.0725
same,area with substrate PNLYFQS,0.0433
same,area with substrate QNLYFQS,0.0643
same,area with substrate SNLYFQS,0.0964
same,area with substrate TNLYFQS,0.0629
same,area with substrate WNLYFQS,0.0732
same,area with substrate YNLYFQS,0.0628
MGESLFKGPRDYNPISSSICHLTNESDGHTTSLYGIGFGPFIITNKTLFRRNNGTLVVQSLHGVFKVKDTTTLQQHLVDGRDMIIIRMPKDFPPFPQKLKFREPQREERICLVTTNFQTKSMSSMVSDTSCTFPSGDGIFWKHWIQTKDGQCGSPLVSTRDGFIVGIHSASNFTNTNNYFTSVPKNFMELLTNQEAQQWVSGWRLNADSVLWGGHKVFMVKPEEPFQPVKEATQL [H47T],area with substrate DNLYFQS,0.0602
same,area with substrate GNLYFQS,0.0501
same,area with substrate HNLYFQS,0.0641
same,area with substrate MNLYFQS,0.0581
same,area with substrate SNLYFQS,0.0584
same,area with substrate TNLYFQS,0.0624
same,area with substrate WNLYFQS,0.0591
same,area with substrate YNLYFQS,0.0549
MGESLFKGPRDYNPISSSICHLTNESDGHTTSLYGIGFGPFIITNKHLLRRNNGTLVVQSLHGVFKVKDTTTLQQHLVDGRDMIIIRMPKDFPPFPQKLKFREPQREERICLVTTNFQTKSMSSMVSDTSCTFPSGDGIFWKHWIQTKDGQCGSPLVSTRDGFIVGIHSASNFTNTNNYFTSVPKNFMELLTNQEAQQWVSGWRLNADSVLWGGHKVFMVKPEEPFQPVKEATQL [F49L],area with substrate DNLYFQS,0.0492
same,area with substrate HNLYFQS,0.0442
same,area with substrate KNLYFQS,0.0587
same,area with substrate LNLYFQS,0.0531
same,area with substrate MNLYFQS,0.0439
same,area with substrate NNLYFQS,0.041
same,area with substrate WNLYFQS,0.006
MGESLFKGPRDYNPISSSICHLTNESDGHTTSLYGIGFGPFIITNKHLNRRNNGTLVVQSLHGVFKVKDTTTLQQHLVDGRDMIIIRMPKDFPPFPQKLKFREPQREERICLVTTNFQTKSMSSMVSDTSCTFPSGDGIFWKHWIQTKDGQCGSPLVSTRDGFIVGIHSASNFTNTNNYFTSVPKNFMELLTNQEAQQWVSGWRLNADSVLWGGHKVFMVKPEEPFQPVKEATQL [F49N],area with substrate DNLYFQS,0.0556
same,area with substrate GNLYFQS,0.0663
same,area with substrate INLYFQS,0.0349
same,area with substrate LNLYFQS,0.0607
same,area with substrate NNLYFQS,0.0627
same,area with substrate PNLYFQS,0.0581
same,area with substrate SNLYFQS,0.0482
same,area with substrate TNLYFQS,0.0531
same,area with substrate VNLYFQS,0.0338
same,area with substrate WNLYFQS,0.0524
same,area with substrate YNLYFQS,0.0614
MGESLFKGPRDYNPISSSICHLTNESDGHTTSLYGIGFGPFIITNKHLFARNNGTLVVQSLHGVFKVKDTTTLQQHLVDGRDMIIIRMPKDFPPFPQKLKFREPQREERICLVTTNFQTKSMSSMVSDTSCTFPSGDGIFWKHWIQTKDGQCGSPLVSTRDGFIVGIHSASNFTNTNNYFTSVPKNFMELLTNQEAQQWVSGWRLNADSVLWGGHKVFMVKPEEPFQPVKEATQL [R50A],area with substrate DNLYFQS,0.0828
same,area with substrate FNLYFQS,0.0468
same,area with substrate GNLYFQS,0.0732
same,area with substrate HNLYFQS,0.0759
same,area with substrate MNLYFQS,0.0629
same,area with substrate PNLYFQS,0.0688
same,area with substrate TNLYFQS,0.0708
same,area with substrate WNLYFQS,0.055
same,area with substrate YNLYFQS,0.0643
